Test results taken from article PMC4336329 (PLoS ONE, 2015).
The whole screen tested about 310,000 compounds, of which about 14,000 (4.5%) showed an effect of 50% or more. Effects have a minus sign here. The list shows a part of the results.

What follows are compounds tested against human ether-à-go-go-related gene (hERG) potassium channel (human, UniProt Q12809) (assay: primary screen, population patch clamp on CHO cells stably expressing hERG).
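Further: peak tail current of the secondary pulse compared with the same well before compound.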

Sequence of human ether-à-go-go-related gene (hERG) potassium channel (Q12809 whole entry, looked up): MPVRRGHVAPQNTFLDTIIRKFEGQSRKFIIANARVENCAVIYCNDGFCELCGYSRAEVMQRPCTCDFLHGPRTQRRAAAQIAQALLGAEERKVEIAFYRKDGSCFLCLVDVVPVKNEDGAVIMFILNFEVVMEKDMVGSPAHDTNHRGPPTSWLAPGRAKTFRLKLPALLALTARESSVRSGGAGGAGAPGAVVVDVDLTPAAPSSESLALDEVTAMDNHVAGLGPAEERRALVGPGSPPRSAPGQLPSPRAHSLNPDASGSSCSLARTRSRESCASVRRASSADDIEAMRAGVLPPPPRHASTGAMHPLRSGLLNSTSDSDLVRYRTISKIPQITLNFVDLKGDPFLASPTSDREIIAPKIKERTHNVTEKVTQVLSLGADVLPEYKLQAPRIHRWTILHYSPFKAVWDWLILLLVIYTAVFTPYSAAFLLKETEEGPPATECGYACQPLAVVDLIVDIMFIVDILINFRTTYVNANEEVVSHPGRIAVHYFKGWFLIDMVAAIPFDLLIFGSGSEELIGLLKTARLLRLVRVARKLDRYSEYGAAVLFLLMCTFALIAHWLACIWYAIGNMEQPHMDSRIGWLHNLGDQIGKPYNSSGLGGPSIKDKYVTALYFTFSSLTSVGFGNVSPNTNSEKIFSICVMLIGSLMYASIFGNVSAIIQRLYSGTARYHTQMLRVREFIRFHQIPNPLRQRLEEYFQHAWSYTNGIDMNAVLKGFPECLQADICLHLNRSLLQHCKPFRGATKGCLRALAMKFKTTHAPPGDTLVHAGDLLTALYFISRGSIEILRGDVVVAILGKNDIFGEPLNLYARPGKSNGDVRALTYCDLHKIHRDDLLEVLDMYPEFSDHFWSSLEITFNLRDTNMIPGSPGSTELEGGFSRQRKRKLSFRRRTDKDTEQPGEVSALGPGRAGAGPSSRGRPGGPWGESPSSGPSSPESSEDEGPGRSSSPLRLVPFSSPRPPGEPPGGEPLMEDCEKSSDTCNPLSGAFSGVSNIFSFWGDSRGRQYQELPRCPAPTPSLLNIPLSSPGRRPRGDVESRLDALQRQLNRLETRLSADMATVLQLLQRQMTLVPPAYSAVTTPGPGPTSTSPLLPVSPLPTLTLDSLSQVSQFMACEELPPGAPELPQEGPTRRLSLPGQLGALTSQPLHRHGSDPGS

Structure (SMILES) | hERG current change (%, negative = inhibition) at 10uM
O=C(Nc1cccc(S(=O)(=O)C(F)F)c1)c1ccc(S(=O)(=O)N2CCCCC2)cc1 | 16.3%
CC(C)(C)C(=O)COC(=O)c1cc(-c2cccnc2)nc2ccccc12 | -28%
O=C(Nc1cnc2ccccc2c1)C1COc2ccccc2O1 (stereo not shown) | -23.7%
CCOc1cc(C2NC(=O)NC(O)(C(F)(F)F)C2C(=O)c2ccccc2)ccc1OC (stereo not shown) | -1.06%
Cc1ccc(S(=O)(=O)c2nc(-c3ccc(F)cc3)oc2SCC(=O)NCC2CCCO2)cc1 (stereo not shown) | 11.5%
Cc1cccc(Cn2cc3c(=O)n(Cc4cccc(F)c4)nc-3c3ccccc32)c1 | 13%
CN1CCN(c2nc(-c3ccccc3Cl)nc3ccccc23)CC1 | -73.8%
COc1ccccc1CNC(=O)N[C@@H](Cc1ccccc1)C(=O)O | 0.272%
O=C1NC(=O)/C(=C\c2ccc(O)cc2O)S1 | 25.2%
CC(Oc1ccccc1Cl)C(=O)N1CCOCC1 (stereo not shown) | 2.79%
C=CCSc1nnc(-c2cc3c(-c4ccccc4)nn(C)c3s2)n1C | -39%
O=C(COc1ccc(S(=O)(=O)N2CCCC2)cc1)NCc1cccnc1 | -3.42%
COc1ccc(CC(=O)NCCCSc2ccccc2)cc1OC | -0.803%
Cc1ccc(C(=O)NCC(=O)N2CCCCCCC2)cc1C | -6.81%
COC(=O)c1ccc(OCCOc2ccc(C(=O)OC)cc2)cc1 | -14.3%
O=C(CS(=O)(=O)c1ccccc1)Nc1ccc(S(=O)(=O)Nc2ncccn2)cc1 | 34.6%
CC(C)CCNC(=O)CN(CC1CCCO1)C(=O)CCC(=O)Nc1nccs1 (stereo not shown) | -10.3%
CCOC(=O)NC(=O)/C(N=Nc1cc(C)cc(C)c1)=C(\C)O | 18.1%
CCc1cc2c(=O)nc3n(c2s1)Cc1ccccc1/C3=C(/O)c1ccc(F)cc1 | -3.7%
CSc1ccc(/C=C(\NC(=O)c2ccc(C)cc2)C(=O)Nc2cccc(C)c2)cc1 | 15.6%
Cc1ccccc1S(=O)(=O)Cc1ccc(C(=O)NCCCN(C)Cc2ccccc2)o1 | -56.2%
COc1c(F)c(F)c(C(=O)Nc2ccc(-c3nc4ccccc4[nH]3)cc2)c(F)c1F | 0.561%

Structure (SMILES) | hERG current change (%, negative = inhibition) at 10uM
CCN(CC)c1ccc(NC(=O)OC)cc1 | 6.05%
O=C(CSc1nncs1)NCCCc1ccccc1 | 34.2%
Cc1cnc(C(=O)OCc2ccc(Br)cc2)cn1 | 0.431%
O=C(NC(=S)NCCc1ccccc1)c1ccco1 | 10.2%
Cc1csc2c(N3CCN(C(=O)NC(C)(C)C)CC3)ncnc12 | 2.16%
CC(C)n1cc(/C=C2/NC(=O)N(c3cccc(Cl)c3)C2=O)c2ccccc21 | 5.27%
CCOc1ccc(C2=Nn3c(nnc3-c3ccccn3)SC2)cc1 | -10.9%
CCN=C(Nc1ccc2c(c1)OCO2)SC1CC(=O)N(c2ccc(OC)cc2)C1=O (stereo not shown) | 16.4%
O=C(c1ccccc1Cc1ccccc1)N1CCN(S(=O)(=O)c2ccc(F)cc2)CC1 | 19.5%
CC(C)NC(=O)C(=O)Nc1ccc2c(c1)N(S(=O)(=O)c1cccs1)CCC2 | -9.42%
O=C(Nc1cccc(F)c1)c1ccc(S(=O)(=O)NCC2CCCO2)cc1 (stereo not shown) | -12.2%
N#CCCN(C(=S)NC(=O)c1ccco1)c1ccccc1F | 25.5%
CCOc1ncccc1C(=O)NCCN1C(=O)S/C(=C/c2cccs2)C1=O | 2.67%
CC(C)(C)c1ccc(C(=O)NC(=S)Nn2cnnc2)cc1 | 17%
Cc1ccc(-c2c(NC(=O)c3ccco3)oc3ccccc3c2=O)cc1 | 10.1%
CCOC(=O)C(C)Oc1ccc(NC(=O)C(Cl)Cl)cc1 (stereo not shown) | 5.62%
CC(C)(C)c1ccc(C2=CC(c3ccccc3F)n3ncnc3N2)cc1 (stereo not shown) | 5.95%
CSS(=O)(=O)c1cccc2cccnc12 | 12.7%
COc1cc(C(=O)NCC(=O)N/N=C(/C)c2cccs2)cc(OC)c1OC | -0.388%
Cc1cc2nc3c(nc2cc1C)CCCC3 | 15.9%
Cc1cc([N+](=O)[O-])cc(/C=N\NC(=O)C2COc3ccccc3O2)c1O (stereo not shown) | -1.78%
CN(C(=O)c1ccc(Br)o1)C1CCCCC1 | 6.77%

Structure (SMILES) | hERG current change (%, negative = inhibition) at 10uM
O=C(CN1CCN(S(=O)(=O)c2ccccc2)CC1)NC(=O)NC1CCCCC1 | -10.9%
CCc1cccc(N(C(=O)c2csnn2)C(C(=O)NC2CCCCC2)c2cccnc2)c1 (stereo not shown) | 4.65%
CCCCN(C)CCNC(=O)C1CCCN(S(=O)(=O)c2cccc3nsnc23)C1 (stereo not shown) | -26.3%
Cc1ccccc1CCN1CCCC(CN(C)CC(C)(C)C)C1 (stereo not shown) | 8.88%
CC(C)CC(=O)NCc1ccc(F)cc1 | 12.9%
N#CC(C(=O)OC1CCCCC1)c1nc2ccccc2nc1N1CCOCC1 (stereo not shown) | -36.8%
CC(C)COc1ccc(CNC(=S)N/N=C/c2ccc([N+](=O)[O-])cc2)cc1 | -0.529%
CCOC(=O)c1ccc(NC(=O)c2cccc(S(=O)(=O)N3CCOCC3)c2)cc1 | -24.5%
O=C(CN(C(=O)c1ccc(Cl)cc1)N1C(=O)C2CCCCC2C1=O)c1ccc(Cl)cc1 (stereo not shown) | 15.1%
COCCNc1nc(N)c([N+](=O)[O-])c(NC2CCCCC2)n1 | 4.56%
CCCCCOC(=O)Nc1ccc(S(=O)(=O)Nn2cnnc2)cc1 | 6.12%
Cc1nc2ccccc2c(N)c1C(=O)/C=C/c1ccccc1 | -79.7%
Cc1ccc(S(=O)(=O)N2CCOCC2)cc1NC(=O)COC(=O)CCn1c(C)csc1=O | 2.85%
COc1ccccc1-c1sc2cc3c(cc2c1-c1ccc2c(c1)OCO2)OCO3 | 5.16%
Cc1ccc(S(=O)(=O)N2CCCCC2)cc1NC(=O)COC(=O)CNC(=O)c1cc(Cl)cc([N+](=O)[O-])c1 | -51.4%
CCc1cccc(C)c1NC(=O)CCOc1ccccc1 | 3.79%
Cc1ccc(NS(=O)(=O)c2cccs2)cc1S(=O)(=O)N1CCCCCC1 | -0.255%
CC(NC(=O)c1cc(S(=O)(=O)N2CCCC2)ccc1Cl)c1ccccn1 (stereo not shown) | 18.1%
O.OC[C@H]1O[C@@H](n2cnc3c(NC4CCCC4)nc(Cl)nc32)[C@H](O)[C@@H]1O | 6.9%
CCOc1nc(-c2ccccc2)c2cc(C)ccc2n1 | -37.6%
CC(=O)Nc1ccc2nc(-c3ccccn3)[nH]c2c1 | 0.751%
CCCCCCCCCC(=O)OCC(O)CO (stereo not shown) | 3.18%

Structure (SMILES) | hERG current change (%, negative = inhibition) at 10uM
O=C(OCC(=O)N1CCc2ccccc2C1)c1cc(=O)[nH]c2ccccc12 | 7.67%
CCc1nn2cc(C(=O)c3cc(C)ccc3O)cnc2c1-c1ccc(F)cc1 | 1.69%
CCCNC(=S)N1CCN(CC)CC1.O=C(O)C(=O)O | 5.56%
O=C1/C(=C/c2ccc(O)cc2)COc2ccccc21 | 23.1%
Cc1ccnc(OC(C(=O)O)C(OCc2ccccc2)(c2ccc(F)cc2)c2ccc(F)cc2)n1 (stereo not shown) | 19.4%
Cc1cc(C)n(-c2cc(O)c(-n3nc(C)cc3C)cc2O)n1 | 23.8%
CC(=O)O[C@H]1CC[C@@]2(C)C(=CC[C@H]3[C@@H]4CC[C@H](C(C)=O)[C@@]4(C)CC[C@@H]32)C1 | 10.9%
CCCCn1c(N)c(N(CC(C)C)C(=O)c2cc(S(=O)(=O)N3CCCCC3)ccc2C)c(=O)[nH]c1=O | 13.3%
NC(=O)C1(N2CCCCC2)CCN(C(=S)Nc2ccc(S(N)(=O)=O)cc2)CC1 | 11.8%
O=C(NCc1ccc(F)cc1)c1ccc(Cl)c(NC2=NC3CS(=O)(=O)CC3S2)c1 (stereo not shown) | -12.4%
O=C(CN1Cc2ccccc2C1=O)Nc1ccc2c(c1)OCCO2 | 3.26%
Cc1nnc(SCc2ccc(Cl)c(Cl)c2)s1 | -6.82%
CCN1CCN(C(=O)CN(c2ccc(F)cc2)S(=O)(=O)c2ccc(OC)c(OC)c2)CC1 | -66.8%
Cc1cccc(N=C2NC(=O)/C(=C/c3cccs3)S2)c1 | 11.9%
Cc1cccc(C)c1NC(=O)C(=O)NCc1ccccn1 | -2.62%
CCOC(=O)c1cnc2c(c(C)nn2C)c1Oc1cc(Cl)cc(Cl)c1 | 11.1%
O=C(CC(=O)N/N=C\c1c(Cl)cccc1Cl)NCc1ccccc1 | 14.7%
C=CCSc1nnc(NC(=O)c2ccc(N3CCCC3=O)cc2)s1 | 18.7%
CSCCC(NC(=O)c1ccccc1)C(=O)N/N=C(\C)Cc1ccccc1 (stereo not shown) | 11.2%
O=C(c1ccc(N2CCCC2=O)cc1)N1CCN(c2ccccc2O)CC1 | -23.7%
O=C(c1ccco1)N1CCN(S(=O)(=O)c2cccc3nsnc23)CC1 | -7.37%
CCc1ccc(NC(=S)N2CCCC2)cc1 | 12.9%
